Measured values as given in the GPR68 mutational scans of Howard et al. (2025).
The least precise scores are not listed. Two further conditions of the source, in which the scores hardly spread, are not listed. In variant names, del marks residues removed and ins residues inserted between the two positions. For some assays here: How much ogerin was present is not stated here.

B1: GPR68, Q15743 (parent)
chain: MGNITADNSSMSCTIDHTIHQTLAPVVYVTVLVVGFPANCLSLYFGYLQIKARNELGVYLCNLTVADLFYICSLPFWLQYVLQHDNWSHGDLSCQVCGILLYENIYISVGFLCCISVDRYLAVAHPFRFHQFRTLKAAVGVSVVIWAKELLTSIYFLMHEEVIEDENQHRVCFEHYPIQAWQRAINYYRFLVGFLFPICLLLASYQGILRAVRRSHGTQKSRKDQIQRLVLSTVVIFLACFLPYHVLLLVRSVWEASCDFAKGVFNAYHFSLLLTSFNCVADPVLYCFVSETTHRDLARLRGACLAFLTCSRTGRAREAYPLGAPEASGKSGAQGEEPELLTKLHPAFQTPNSPGSGGFPTGRLA

Columns and labels:
[1] = variants of: B1; experiment: cAMP reporter score (Enrich2 score, wild type = 0); higher = more signal; HEK293T, FACS bins
[2] = variants of: B1; experiment: surface expression score (Enrich2 score, wild type = 0); higher = more signal; HEK293T, FACS bins

Variant | cAMP reporter score ([1]; pH 5.5) | cAMP reporter score ([1]; pH 6) | cAMP reporter score ([1]; pH 6, modulator: ogerin) | cAMP reporter score ([1]; pH 6.5, modulator: ogerin) | surface expression score [2]
F265del | -1.42 | 0.298 | -1.5 | -1.01 | -0.84
K262_V264del | -0.847 | -1.51 | -2.35 | -1.12 | -1.32
Y268_H269insGSG | -2.09 | -1.2 | -1.84 | -1.22 | -2.23
K262N | 0.077 | -0.572 | -0.27 | -0.619 | 0.036
K262Y | -0.08 | -0.281 | 0.546 | 0.301 | -1.15
K262R | 0.388 | 0.652 | 0.809 | 1.03 | -0.064
K262P | -0.543 | -0.975 | -1.42 | -0.65 | 2.13
K262H | -0.809 | -0.31 | -0.613 | -0.917 | -0.941
K262G | 0.758 | 0.331 | 0.229 | 0.277 | 0.588
K262M | 0.544 | 0.512 | 0.643 | -0.28 | -0.067
K262I | -0.112 | -0.043 | -0.167 | -0.028 | -0.173
K262W | 1.11 | -0.243 | 1.39 | 0.105 | 0.669
K262S | 0.043 | 1 | 0.476 | 1.92 | 0.372
K262Q | -0.052 | -0.562 | 0.219 | -0.523 | 1.24
K262L | 0.75 | -0.151 | 0.743 | -0.498 | 0.091
K262V | 1.43 | 2.32 | 0.606 | – | 1.43
L273_T275del | -1.21 | -0.648 | -1.48 | -1.09 | -2.51
G263_V264insGS | -0.597 | -1.07 | -1.88 | -1.26 | -0.352
S271_L273del | -1.5 | -0.817 | -1.32 | -0.997 | –
S271del | -2.06 | -1.04 | -1.37 | -1.24 | -2.92
F265_N266insGSG | -1.38 | 0.18 | -1.46 | -0.643 | -1.61
V264_F265insG | -0.732 | -0.314 | -0.525 | -0.477 | -1.9

Variant | cAMP reporter score ([1]; pH 5.5) | cAMP reporter score ([1]; pH 6) | cAMP reporter score ([1]; pH 6, modulator: ogerin) | cAMP reporter score ([1]; pH 6.5, modulator: ogerin) | surface expression score [2]
S271I | -1.23 | -0.577 | -1.93 | -1.37 | -2.7
S271L | -1.56 | -1.69 | -1.68 | -1.19 | -1.68
S271T | -0.179 | -0.702 | -0.241 | -0.593 | 0.302
S271N | -0.85 | -0.385 | -1.38 | -1.14 | -1.69
S271M | -1.93 | -0.838 | -1.31 | -0.573 | -1.99
S271E | -2.94 | – | -2.42 | -0.401 | -2.23
S271P | -0.771 | – | -1.91 | – | -2.31
S271H | -1.52 | – | – | -2.49 | –
S271K | -1.75 | -0.291 | -0.98 | -1.58 | -2.16
S271G | 0.338 | -0.366 | -0.318 | 1.41 | -0.79
S271C | 0.276 | -0.947 | 0.854 | 0.029 | 0.072
S271D | -0.408 | – | – | -0.429 | –
S271Q | -1.87 | -0.108 | – | -0.841 | -1.65
S271R | -0.955 | -1.11 | -1.5 | -1.06 | -2.48
S271A | 0.902 | – | 1.39 | 1.19 | 0.918
S271V | -0.823 | – | – | -1.48 | -0.714
S271F | -1.24 | -1.25 | -0.901 | -0.978 | -1.36
L272C | -1.68 | -1.36 | -1.1 | -1.36 | -0.742
L272P | -1.81 | -1.3 | -1.31 | -1.7 | -2.56
L272E | -1.06 | -0.28 | -1.31 | -0.944 | -0.785
L272V | -0.31 | – | 0.214 | -0.821 | -0.691
L272F | 0.12 | 0.371 | 0.896 | 2.28 | -1.01

Variant | cAMP reporter score ([1]; pH 5.5) | cAMP reporter score ([1]; pH 6) | cAMP reporter score ([1]; pH 6, modulator: ogerin) | cAMP reporter score ([1]; pH 6.5, modulator: ogerin) | surface expression score [2]
L272I | -1.03 | -1.25 | -1.55 | -1.04 | 0.548
L272D | -0.422 | – | -0.616 | – | –
L272T | -1.25 | -1.37 | -1.55 | -1.19 | -1.44
L272Q | -0.314 | 0.882 | -0.918 | – | -0.337
L272H | 0.566 | -0.559 | 0.183 | -0.105 | -1.85
L272K | -1.17 | -0.367 | -0.935 | -0.513 | –
L272A | -0.519 | -0.131 | – | -0.837 | -0.923
L272W | -0.548 | -0.689 | -1.51 | -1.36 | -0.766
L272G | -1.25 | -0.739 | -2.02 | 0.375 | –
L272S | -1.41 | -0.349 | -1.99 | -1.8 | -1.96
L272N | -1.25 | -1.18 | -1.97 | -0.795 | -1.61
L272R | -0.539 | -1.01 | -0.43 | -0.436 | -0.934
L272M | -0.051 | – | – | – | –
L272Y | -1.5 | -1.64 | -1.91 | -1.83 | -0.923
F270_S271insGS | -1.06 | -0.917 | -1.05 | -0.808 | -2.8
F265G | -0.565 | -0.534 | -0.032 | -0.39 | 0.168
F265Q | 1.07 | 0.64 | 0.234 | -0.583 | 2.21
F265A | 0.468 | – | 1.18 | -0.201 | –
F265R | -0.615 | -0.165 | -0.114 | -0.8 | -1.04
F265L | -0.021 | -1.16 | -0.119 | -0.375 | 0.935
F265C | 0.204 | -0.748 | -1.41 | -0.746 | 1.34
